Here are results for 55 compounds from article PMC4336329 (PLoS ONE, 2015).

Molecules are shown by their SMILES. Hit rate of the full screen: of about 310,000 compounds, about 2,200 (0.71%) showed an effect of 50% or more. Effects have a minus sign here. The list shows a part of the results.

The target of this assay is human ether-à-go-go-related gene (hERG) potassium channel (human, UniProt Q12809). The experiment in a line: primary screen, population patch clamp on CHO cells stably expressing hERG.
human ether-à-go-go-related gene (hERG) potassium channel, sequence (Q12809 whole entry, looked up): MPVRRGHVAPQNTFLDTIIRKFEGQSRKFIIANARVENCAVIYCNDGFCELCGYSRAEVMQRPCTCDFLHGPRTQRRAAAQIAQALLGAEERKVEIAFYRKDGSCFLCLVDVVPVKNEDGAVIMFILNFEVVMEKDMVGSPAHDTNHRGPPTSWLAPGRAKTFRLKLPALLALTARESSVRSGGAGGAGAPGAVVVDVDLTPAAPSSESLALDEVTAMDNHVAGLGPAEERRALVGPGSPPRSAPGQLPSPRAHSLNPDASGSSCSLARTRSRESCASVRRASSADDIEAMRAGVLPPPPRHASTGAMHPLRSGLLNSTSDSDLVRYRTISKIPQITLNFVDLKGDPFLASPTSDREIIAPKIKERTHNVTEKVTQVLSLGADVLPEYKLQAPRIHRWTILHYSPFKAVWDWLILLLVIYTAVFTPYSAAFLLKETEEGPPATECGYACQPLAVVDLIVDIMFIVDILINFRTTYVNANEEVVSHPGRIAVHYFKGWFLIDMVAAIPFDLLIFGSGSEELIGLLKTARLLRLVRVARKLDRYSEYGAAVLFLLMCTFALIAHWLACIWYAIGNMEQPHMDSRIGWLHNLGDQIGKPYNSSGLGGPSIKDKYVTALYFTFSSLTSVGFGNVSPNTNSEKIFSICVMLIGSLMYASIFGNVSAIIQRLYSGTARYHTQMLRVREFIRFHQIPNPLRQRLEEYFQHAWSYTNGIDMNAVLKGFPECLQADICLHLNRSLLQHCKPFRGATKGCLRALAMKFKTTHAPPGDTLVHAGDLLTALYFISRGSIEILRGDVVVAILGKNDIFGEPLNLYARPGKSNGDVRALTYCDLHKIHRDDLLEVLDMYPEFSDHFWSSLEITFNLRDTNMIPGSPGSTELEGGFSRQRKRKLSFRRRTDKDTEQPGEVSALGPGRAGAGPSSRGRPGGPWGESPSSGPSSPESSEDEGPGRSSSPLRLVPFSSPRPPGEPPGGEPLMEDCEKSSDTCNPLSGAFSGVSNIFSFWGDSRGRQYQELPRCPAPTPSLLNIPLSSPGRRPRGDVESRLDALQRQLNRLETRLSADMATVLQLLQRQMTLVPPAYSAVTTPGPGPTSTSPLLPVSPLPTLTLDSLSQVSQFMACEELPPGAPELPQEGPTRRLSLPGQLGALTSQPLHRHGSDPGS
As to `CC(=O)Nc1nnc(-c2ccc3c(c2)CCCC3)o1`, the “hERG current change (%, negative = inhibition) at 1uM” value is -17.1%. For the compound `COc1cc(/C=N/NC(=O)c2cc(C)oc2C)cc(OC)c1OC`, the “hERG current change (%, negative = inhibition) at 1uM” value is on record as 18.4%.

Regarding `CCC(=O)Nc1ccc(Br)cn1`, the “hERG current change (%, negative = inhibition) at 1uM” value was determined as 15.6%. For `CC1CCN(CC(=O)Nc2ccccc2C(=O)NC2CC2)CC1`, the “hERG current change (%, negative = inhibition) at 1uM” value stood at 5.31%. For `Cc1nc(-c2ccccc2)sc1C1(C)CC(c2ccc(OC(F)(F)F)cc2)=NO1` (stereo not shown) the value was 8.66%; for `O=C(O)CCn1ncc2ccccc2c1=O`, 10.7%; for `O=C(Nc1cccc(-c2cccc(Cl)c2)c1)C1CCN(C2CCC2)CC1`, -35.1%. For `COCCNC(=O)c1cc2nc(-c3ccc(F)cc3)cc(C(F)(F)F)n2n1` the value was 7.29%.

As to `COc1ccc(CCN2CC(C(=O)OCC(=O)Nc3c(C)nn(-c4ccccc4)c3C)CC2=O)cc1OC` (stereo not shown), the “hERG current change (%, negative = inhibition) at 1uM” value is recorded as 3.6%. Regarding `COc1ccc(C(C)N2CC34C=CC(O3)C(C(=O)O)C4C2=O)cc1` (stereo not shown), the “hERG current change (%, negative = inhibition) at 1uM” value amounted to 15.5%.

For `Cn1c(=O)c2c(ncn2CC(O)CNc2cccc(Cl)c2)n(C)c1=O` (stereo not shown), the “hERG current change (%, negative = inhibition) at 1uM” value is reported as 3.88%. The figure for `C[C@H](NC(=O)C1CCN(S(=O)(=O)c2ccccc2)CC1)C(=O)NCc1ccccc1` is 2.61%; for `CCCCCCCN1CCC(=O)N([C@H](CO)CC(C)C)CC1` it is -29.5%. The figure for `CC(NC(=O)Cn1c(=O)oc2cc(S(=O)(=O)N3CCCC3)ccc21)c1ccccc1` (stereo not shown) is 8.03%.

For `CN(C(=O)c1cc(C(=O)N(C)c2ccccc2)cc([N+](=O)[O-])c1)c1ccccc1`, the “hERG current change (%, negative = inhibition) at 1uM” value came out at 5.51%.

`CCOCCCNS(=O)(=O)Cc1ccccc1`: the “hERG current change (%, negative = inhibition) at 1uM” value was determined as 9.06%. The figure for `O=C(Cc1ccccc1)NCC(=O)N/N=C/c1ccc(C(=O)O)cc1` is 9.98%.

With `COc1ccc(CCNC(=O)CSc2nc3ccsc3c(=O)n2CC2CCC(C(=O)O)CC2)cc1OC` (stereo not shown), the “hERG current change (%, negative = inhibition) at 1uM” value is on record as 15.4%. For `CC(C)CCN(C(=O)CCSc1ccc(F)cc1)c1c(N)n(Cc2ccccc2)c(=O)[nH]c1=O` the value was 16.9%. For `Cc1cccc(OCc2n[nH]c(=S)o2)c1C` the value was 0.599%; for `Cc1ccccc1C(=O)Nc1ccnn1C1CCN(C2CCSCC2)CC1`, -2.27%; for `CCOC(=O)c1ccc(NC(=O)c2nn(CC)cc2Br)cc1`, 13.1%. For `CCOC(=O)C1=C(C)N=c2s/c(=C\c3ccc(OCC(=O)O)c(OC)c3)c(=O)n2C1c1ccc(OC)cc1` (stereo not shown) the value was 11.4%.

Turning to `CC1C/C(=N/Nc2ccc([N+](=O)[O-])cc2[N+](=O)[O-])CC(C)(C)C1` (stereo not shown), the “hERG current change (%, negative = inhibition) at 1uM” value was 12.7%.

`CCn1cc(C(=O)NCCCN2CCC(C)CC2)c(=O)c2cc(S(=O)(=O)N(C)C3CCCCC3)ccc21`: the “hERG current change (%, negative = inhibition) at 1uM” value is reported as -74%. The figure for `O=C(Nc1cccc(F)c1)N1CCC(c2ccccc2)CC1` is 10.4%; for `COc1ccc(C(C(=O)NC2CCCCC2)N(C(=O)c2sc(C)nc2C)c2ccccc2C)cc1` (stereo not shown) it is -0.607%; for `Cc1cccc(C(=O)NNC(=O)CSc2nnc(C3CC3)n2C)c1` it is 20.3%. The figure for `CC1=C(C#N)C(NC(=O)c2ccc(C)cc2)(C(F)(F)F)C(=O)N1` (stereo not shown) is 21.9%. Take `CCSc1ccccc1C(=O)NCc1ccc(OC)cc1`: the “hERG current change (%, negative = inhibition) at 1uM” value is reported as 12%.

As for `CCCCCCNCc1c(F)cccc1Cl`, the “hERG current change (%, negative = inhibition) at 1uM” value was 6.71%. The figure for `O=C(O)c1ccc(N/N=C/c2cc3ccccc3nc2Cl)cc1` is 16.7%; for `O=c1[nH]n2c(-c3ccccc3)nc(O)c2c2ccccc12` it is -3.38%; for `COc1ccc(C2=NOC(c3nnc(-c4ccccc4)o3)C2)cc1` (stereo not shown) it is 12.5%.

With `Cc1cc(NC(=O)COC(=O)C2CCN(S(=O)(=O)c3ccc(Cl)cc3)CC2)no1`, the “hERG current change (%, negative = inhibition) at 1uM” value is listed as 13.4%.

As to `CS(=O)(=O)N(Cc1ccccc1)c1ccc(C(=O)NCc2ccccc2)cc1`, the “hERG current change (%, negative = inhibition) at 1uM” value was found to be 20.1%. For `O=C(O)CCC(=O)N1CCN(c2ncccn2)CC1` the value was 16.3%; for `COc1ccc(C2(CNC(C)=O)CCCC2)cc1OC`, 6.75%. `O=C(Nc1ccc(Cl)c(Cl)c1)Nc1cc(C(=O)NC2CC2)ccc1Cl`: the “hERG current change (%, negative = inhibition) at 1uM” value was 8.3%. For `COc1ccccc1NC(=S)N1CC(C)OC(C)C1` (stereo not shown) the value was 13.6%; for `O=C(CSc1cccc[n+]1[O-])Nc1cc2c(cc1Cl)C(=O)c1ccccc1C2=O`, 8.33%. Consider `Cc1ccc(S(=O)(=O)c2c(C)cc(C)[nH]c2=O)cc1`, for which the “hERG current change (%, negative = inhibition) at 1uM” value is reported as 19.5%. The figure for `COc1ccc(CNC(=O)c2cnc3scc(C)n3c2=O)cc1` is -2.45%; for `COc1cc(Cn2nnc3ccccc32)cc(Br)c1O` it is 7.6%. For the compound `O=C(c1cc([N+](=O)[O-])cc([N+](=O)[O-])c1)N(Cc1nnc(-c2ccccc2Cl)o1)C1CC1`, the “hERG current change (%, negative = inhibition) at 1uM” value was found to be 3.67%. As for `Cc1ccc(C)c(Nc2nc3ccccc3n3cnnc23)c1`, the “hERG current change (%, negative = inhibition) at 1uM” value worked out at 6.83%.

Regarding `COc1cc(NS(=O)(=O)c2ccc(OC)c(OC)c2)cc(OC)c1`, the “hERG current change (%, negative = inhibition) at 1uM” value turned out to be 6.27%.

Consider `CCOC(=O)C1CCN(C(=O)c2cccc(C(=O)N3CCC(C(=O)OCC)CC3)c2)CC1`, for which the “hERG current change (%, negative = inhibition) at 1uM” value is 10%.

For the compound `CC(/C=C1\SC(=S)N(CC(=O)N2CCN(c3ccccc3)CC2)C1=O)=C\c1ccccc1`, the “hERG current change (%, negative = inhibition) at 1uM” value stood at 2.67%. For the compound `COc1ccc(/C=N/NC(=O)c2c(C)nc3ccccn23)cc1[N+](=O)[O-]`, the “hERG current change (%, negative = inhibition) at 1uM” value was 13.7%. The figure for `CC(/C=N/n1c(-c2cccnc2)n[nH]c1=S)=C\c1ccccc1` is -0.374%; for `Cc1c(NC(=O)c2ccccc2NS(=O)(=O)c2ccc(Br)cc2)c(=O)n(-c2ccccc2)n1C` it is 3.92%. For the compound `Cc1[nH]c2ccccc2c1C(=O)CN1C(=O)C(=O)N(CCC2=CCCCC2)C1=O`, the “hERG current change (%, negative = inhibition) at 1uM” value is recorded as 12.1%.

With `Cc1cnc(CN(C)Cc2c(C(=O)N3CCc4ccccc4C3)nc3ccc(Cl)cn23)[nH]1`, the “hERG current change (%, negative = inhibition) at 1uM” value is reported as -12.4%.

For `Oc1ccc(N2CCN(C(=S)NCCc3ccccc3)CC2)cc1`, the “hERG current change (%, negative = inhibition) at 1uM” value is on record as 3.64%.
